Source: US20180169257A1 (Seagen, published 2018)

Biological target: T1, human NTB-A (human, UniProt Q96DU3 22-332)
T1 sequence: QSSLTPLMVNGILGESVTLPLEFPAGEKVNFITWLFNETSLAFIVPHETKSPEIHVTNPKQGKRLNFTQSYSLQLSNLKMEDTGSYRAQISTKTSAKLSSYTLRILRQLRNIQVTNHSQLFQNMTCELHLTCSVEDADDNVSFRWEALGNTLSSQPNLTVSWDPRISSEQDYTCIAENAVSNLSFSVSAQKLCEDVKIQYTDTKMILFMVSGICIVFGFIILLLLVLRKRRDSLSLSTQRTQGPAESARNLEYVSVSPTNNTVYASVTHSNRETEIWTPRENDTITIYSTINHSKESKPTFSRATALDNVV
Assay: cell-based or functional assay

- Maximum % Phagocytosis (ADCP), Raji cell line: 45%
- Maximum % Phagocytosis (ADCP), WIL2-S cell line: 45%
- Maximum % Phagocytosis (ADCP), normal human T cells: 37%
B1: h20F3ec-1910(2) PBD dimer ADC (other)
heavy: QIQLVQSGSELKKPGASVKVSCKASGYTFTNYGMNWVRQAPGQDLKWMGWINTYSGEPRYADDFKGRFVFSLDKSVNTAYLQISSLKAEDTAVYYCARDYGRWYFDVWGQGTTVTVSS[sequence of human IgG1 constant region with changes omitted]
light: QIVLSQSPATLSLSPGERATMSCRASSSVSHMHWYQQKPGQAPRPWIYATSNLASGVPARFSGSGSGTDYTLTISSLEPEDFAVYYCQQWSSTPRTFGGGTKVEIKRTVAAPSVFIFPPSDEQLKSGTASVVCLLNNFYPREAKVQWKVDNALQSGNSQESVTEQDSKDSTYSLSSTLTLSKADYEKHKVYACEVTHQGLSSPVTKSFNRGEC
modifications: drug-linker SGD-1910 (PBD dimer) on the thiol of the cysteine introduced at position 239 (EU index) of the IgG1 chain; average drug load about 2 per antibody
